# According to paper PMC4336329 (PLoS ONE, 2015):
# In all, about 310,000 compounds went through this assay and about 2,200 (0.71%) showed an effect of 50% or more. Effects have a minus sign here. The list shows a part of the results.
# Target: human ether-à-go-go-related gene (hERG) potassium channel (human, UniProt Q12809)
# Experiment: primary screen, population patch clamp on CHO cells stably expressing hERG
# human ether-à-go-go-related gene (hERG) potassium channel, sequence (Q12809 whole entry, looked up): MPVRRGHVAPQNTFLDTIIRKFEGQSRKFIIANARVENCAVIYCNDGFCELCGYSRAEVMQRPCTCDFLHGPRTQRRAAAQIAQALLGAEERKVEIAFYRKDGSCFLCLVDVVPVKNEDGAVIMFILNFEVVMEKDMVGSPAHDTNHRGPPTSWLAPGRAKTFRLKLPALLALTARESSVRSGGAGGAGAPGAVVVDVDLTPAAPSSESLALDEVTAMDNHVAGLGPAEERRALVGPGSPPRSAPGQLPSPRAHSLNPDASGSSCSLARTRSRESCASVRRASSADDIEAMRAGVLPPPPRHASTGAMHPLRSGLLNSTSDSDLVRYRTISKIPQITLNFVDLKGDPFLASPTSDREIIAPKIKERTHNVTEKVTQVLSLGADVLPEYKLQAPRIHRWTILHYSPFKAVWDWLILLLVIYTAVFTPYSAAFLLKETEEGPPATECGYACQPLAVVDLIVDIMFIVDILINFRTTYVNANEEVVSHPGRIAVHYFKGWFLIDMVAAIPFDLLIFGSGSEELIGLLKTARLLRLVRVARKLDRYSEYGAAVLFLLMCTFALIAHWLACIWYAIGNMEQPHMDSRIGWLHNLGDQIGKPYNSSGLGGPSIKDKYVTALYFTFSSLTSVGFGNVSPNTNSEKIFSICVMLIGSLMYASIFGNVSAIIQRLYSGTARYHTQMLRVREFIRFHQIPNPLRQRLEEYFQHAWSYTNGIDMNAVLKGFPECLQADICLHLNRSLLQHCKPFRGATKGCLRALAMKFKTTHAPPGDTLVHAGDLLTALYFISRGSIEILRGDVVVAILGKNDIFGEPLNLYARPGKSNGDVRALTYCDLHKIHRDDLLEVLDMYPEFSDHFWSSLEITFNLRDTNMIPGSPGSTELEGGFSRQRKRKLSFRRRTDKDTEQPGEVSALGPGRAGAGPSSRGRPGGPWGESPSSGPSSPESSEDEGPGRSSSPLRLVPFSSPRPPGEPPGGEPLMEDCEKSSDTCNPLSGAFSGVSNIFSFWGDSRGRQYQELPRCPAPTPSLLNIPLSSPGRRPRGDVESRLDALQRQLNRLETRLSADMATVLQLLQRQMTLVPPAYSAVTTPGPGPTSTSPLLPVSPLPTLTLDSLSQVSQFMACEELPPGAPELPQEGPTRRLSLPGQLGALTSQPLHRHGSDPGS
row,Compound,"hERG current change (%, negative = inhibition) at 1uM [%]"
1,CCOC(=O)c1c(NC(=O)c2ccccc2Br)sc2c1CCc1ccccc1-2,22.8
2,COCCn1c(=O)[nH]c2cc(C(=O)N3CCN(c4ccc(OC)cc4)CC3)ccc2c1=O,-2.05
3,O=C(N/C=N/OCc1ccc(Cl)cc1Cl)NOCc1ncc(C(F)(F)F)cc1Cl,6.69
4,O=C(Nc1cc(Cl)ccc1Cl)N1CCCC1,3.59
5,COc1cccc(-n2nnc3c(=O)n(Cc4ccc(Cl)cc4)cnc32)c1,-1.22
6,CCOC(=O)CCc1cccc2c1CCC2=O,3.93
7,CCCC1OC2CC3C4CCC5=CC(=O)C=CC5(C)C4C(O)CC3(C)C2(C(=O)O)O1 (stereo not drawn),9.5
8,COc1cc(/C=N/NC(=O)COc2cc(C)cc(C)c2)ccc1OS(=O)(=O)c1ccc(C)cc1,14.1
9,O=C(CSc1nnc2c(n1)[nH]c1ccc(F)cc12)NC1CC1,0.818
10,COc1ccc(Nc2nc(=O)[nH]nc2C)cc1,17.6
11,COc1ccc(C(=O)C2CN(C)CC2C(=O)c2ccc(OC)cc2)cc1 (stereo not drawn),-31.1
12,O=S(=O)(Nc1nccs1)c1ccc(Cl)cc1,-2.16
13,COc1ccccc1NCCC(=O)OCC(=O)NCc1ccco1,19.6
14,C=CCOc1ccc(C2CC(C)=NN2c2ccccc2)cc1 (stereo not drawn),9.37
15,CCN(CC(=O)Nc1ccc(NC(C)=O)cc1)C(=O)COc1ccccc1Cc1ccccc1,3.12
16,COc1ccccc1NC(=S)NCC1CCCCC1,-0.977
17,O=C(CCn1c(=O)c2cccn2c2cccnc21)N1CCN(c2cccc(Cl)c2)CC1,-12.1
18,O=C(Nc1ccccc1[N+](=O)[O-])c1ccc(S(=O)(=O)N2CCCC2)cc1,11.8
19,O=c1c(Cc2ccc(F)cc2)c(O)ccn1C1CC1,14.5
20,COc1ccc(N2CCN(C(=O)c3ccc(NS(=O)(=O)c4ccc(F)c(F)c4)cc3)CC2)cc1,-8.39
21,C[C@H](NC(=O)c1nc[nH]c1C(=O)N1CCN(C(=O)OC(C)(C)C)CC1)C(=O)OC(C)(C)C,5.05
22,CCOCCCNCc1cccc(OC)c1.O=C(O)C(=O)O,10.2

row,Compound,"hERG current change (%, negative = inhibition) at 1uM [%]"
1,COc1nnc(-c2ccc(N3CCOCC3)c(NC(=O)c3ccc(C)cc3)c2)c2ccccc12,6.96
2,COC(=O)Cn1c(=O)c2c(n(Cc3ccccc3)c1=O)N/C(=C/c1ccc(OC)cc1)C2=O,5.79
3,S=c1[nH]ncn1NCc1ccc(Cl)cc1Cl,6.07
4,CCCCn1c(CCC(=O)O)nc2cc(S(=O)(=O)N(C)C)ccc21,11.6
5,CC(C(=O)NCc1ccccc1)N1C(=O)CN(C)C(=O)c2ccccc21 (stereo not drawn),13.7
6,COc1ccc(-c2c(C(F)(F)F)[nH]n3c(=O)cc(-c4ccccc4)nc23)cc1,12.2
7,Cc1cc(OCC(=O)Nc2ccncc2)ccc1[N+](=O)[O-],-13.9
8,Cc1cccc(Cl)c1OCCN1CCCC1.O=C(O)C(=O)O,11.5
9,CC(=NC1CCN(Cc2ccccc2)CC1)c1c(O)n(C)c(=O)n(C)c1=O,-5.41
10,CC(=O)c1cccc(Nc2nc(-c3cccc([N+](=O)[O-])c3)cs2)c1.Cl,1.25
11,CCOc1ccc(N(Cc2ccc(OC)c(OC)c2)C(=O)c2ccco2)cc1,14.8
12,CCC1SC2=NC(C)=C(C(=O)OC)C(c3ccc(C)cc3)N2C1=O (stereo not drawn),9.29
13,CCC(C)C(NC(=O)c1ccccc1NC(=O)c1ccco1)C(=O)NNC(=O)c1ccc(OC)cc1 (stereo not drawn),5.64
14,C=CCN(c1ccc(C(=O)N2CCCC2)cc1)S(C)(=O)=O,4.38
15,Cc1cccc(NC(=S)NN2CCN(C)CC2)c1C,11.7
16,COc1cccc(C(=O)NCCNC(=O)c2ccccn2)c1,14.5
17,CCOC(=O)c1cnc(Cc2ccccc2)[nH]c1=O,9.42
18,Cc1ccccc1C1CC(c2cccs2)Nc2nnnn21 (stereo not drawn),5.59
19,Cc1nn(CC(=O)NC(=O)NC2CCCC(C)C2C)c(=O)c(C#N)c1C (stereo not drawn),1.69
20,COC(=O)c1ccc(/C=N/N2CCN(Cc3ccc(C)cc3C)CC2)cc1,7.58
21,C=CCn1c(Oc2cc(C)ccc2C)nc2c1c(=O)n(C)c(=O)n2C,-5.51
22,Cc1ccc2nnc(Cl)n2n1,8.31

row,Compound,"hERG current change (%, negative = inhibition) at 1uM [%]"
1,CCOc1cc(/C=N/NC(=O)Cn2nc([N+](=O)[O-])cc2C)cc(Br)c1OCc1ccccc1C,4.41
2,CCC1CCc2sc(C(=O)NNC(=S)NCC3CCCO3)cc2C1 (stereo not drawn),22.1
3,O=C(O)CCN1C(=O)c2ccc(NC(=O)c3cccs3)cc2C1=O,11.3
4,CCOC(=O)/C(=N\Nc1cccc(Cl)c1)Sc1nnc(-c2ccc(OC)cc2)n1C,-5.8
5,COc1ccc(-c2cc3cc(OC)c(OC)cc3c(C)n2)cc1,9.79
6,COc1ccc(/C=C(\C#N)C(=O)NC(C)c2ccccc2)cc1O (stereo not drawn),4.71
7,CC(=O)NS(=O)(=O)c1ccc(NC(=O)c2ccccc2F)cc1,-1.14
8,Cc1ccc(S(=O)(=O)N(C)C)cc1NC(=O)COC(=O)CC1CCCC1,-32.5
9,C/C(=N\NC(=S)NCC(C)(C)C)c1cc(F)cc(F)c1O,17.3
10,Cc1c(C=O)c(Cl)n(C)c(=O)c1C#N,19.7
11,Cc1ccc2oc3c(c(=O)c2c1)C(c1cccc(O)c1)N(c1ccccn1)C3=O (stereo not drawn),7.74
12,C=CCNC(=O)c1ccc(CN(c2ccc(OCC)cc2)S(=O)(=O)c2ccc(C)cc2)cc1,7.65
13,COc1cc(OC)cc(C(=O)OCC(=O)c2ccc(S(=O)(=O)N3CCCCC3)cc2)c1,4.66
14,Cc1nc(=O)c(-c2ccccc2)c(C)n1Cc1ccccc1,14.1
15,Cn1ncc(Br)c1C(=O)N1CCc2ccccc21,11.9
16,CCOC(=O)C1CCCN(C(=O)C2CCCN(S(=O)(=O)c3ccc4c(c3)oc(=O)n4C)C2)C1 (stereo not drawn),3.42
17,CCOc1ccc(S(=O)(=O)Oc2ccc3ccccc3c2)cc1,10.9
18,C=CCn1c(COc2cccc3cccnc23)nnc1SCC(=O)O,9.5
19,Cc1c(C)n(CCCN(C)C)c2ncnc(NC3CCCCC3)c12,2.62
20,O=C(CCN1C(=O)S/C(=C\c2cccs2)C1=O)Nc1nccs1,11.8
21,Cc1ccc(S(=O)(=O)N2CCCC2C(=O)Oc2ccccc2)cc1 (stereo not drawn),8.2
22,NC(=O)CCC(NS(=O)(=O)c1ccc(Cl)cc1)C(=O)NCc1ccccc1 (stereo not drawn),-2.63

row,Compound,"hERG current change (%, negative = inhibition) at 1uM [%]"
1,CCOC(=O)C1=C(N)n2c(s/c(=C\c3ccco3)c2=O)=C(C(=O)OC(C)C)C1c1ccco1 (stereo not drawn),14.3
2,COc1ccc(C(=O)CCN2CCc3cc(OC)c(OC)cc3C2)cc1.Cl,-34.4
3,COc1ccc(NC(=O)CNC(=O)c2ccc([N+](=O)[O-])cc2)cc1,3.86
4,COc1ccc(N(C(=O)CCC(=O)Nc2cc(C)on2)C(C(=O)NC2CCCC2)c2ccco2)cc1 (stereo not drawn),11.7
5,CCCn1c(=O)[nH]c(=O)c2c1nc(-c1ccc(OC)c(Br)c1)n2CCOC,-4.24
6,S=C(Nc1ccc(Br)cc1)NC1CCN(Cc2ccccc2)CC1,5.72
7,O=C(N/N=C/c1ccc(N2CCOCC2)cc1)C1CC1,10.9
8,Cc1ccc(C)c(-c2nnc(NC(=O)c3ccco3)o2)c1,5.92
9,CCOCCn1c(SCc2ccc(C)cc2)nc2c1c(=O)[nH]c(=O)n2C,18.6
10,OC(CNCCC1C=Nc2ccccc21)Cn1c2ccc(Cl)cc2c2cc(Cl)ccc21 (stereo not drawn),6.24
11,Cc1oc(-c2ccccc2)nc1CS(=O)CC(=O)NC1CCCC1 (stereo not drawn),13.7
12,CCOc1ccc2[nH]c(=O)c(CN(CCO)C(=O)c3ccc(Br)cc3)cc2c1,9.68
13,CN(CC(=O)Nc1cccc(F)c1)C(=O)c1cccc2ccccc12,11.4
14,OC(c1ccccc1)c1cccnc1 (stereo not drawn),1.72
15,CCOC(=O)c1ccc(NC(=O)c2ccc(NC(=O)C3CCCO3)cc2)cc1 (stereo not drawn),2.09
16,CC(=O)N/N=C/c1cc(C)n(-c2ccc(Br)cc2)c1C,1.14
17,CC(/C=C1\SC(=S)N(NC(=O)c2ccc(C)cc2)C1=O)=C\c1ccccc1,12.5
18,CCOc1cc(/C=C2/NC(=O)NC2=O)cc(Br)c1OCc1ccc(C(=O)O)cc1,6.09
19,COC(=O)c1ccc(COc2ccc(/C=N/NC(=O)C(=O)Nc3ccc(OC)cc3)cc2OC)o1,9.15
20,Cc1c(Cl)cccc1NC(=O)C(=O)NNS(=O)(=O)c1ccc(F)cc1,3.63
21,O=S(=O)(c1cc(F)ccc1F)N1CCC2(CC1)OCCN2S(=O)(=O)c1cccs1,12
